# Assay results taken from PubChem BioAssay AID463173 (ICCB-Longwood Screening Facility, Harvard Medical School, 2010).
# Out of some 52,000 compounds screened, about 4,300 (8.3%) were called active. No stated cut-off is given here; in the data, active means survival mostly below about 52% (no sharp cut-off); inactive means mostly above about 56%. Some of the results follow.
# System: DeltatarO mutant
# Experiment: growth inhibition of S. aureus wild type versus tarO mutant, primary screen, teichoic acid synthesis inhibitors, RN4220, OD600 (AID 463173)
# Conditions: OD600, 18 h, stronger effect = lower value, screened at 18.75 µg/mL (by protocol)
row,SMILES,survival
1,Cc1csc2nc(COC(=O)c3cccc(NC(=O)c4cccc(Cl)c4)c3)cc(=O)n12,active: 17%
2,COc1ccc(OC)c(NC(=O)CSC2=Nc3ccccc3C3=NC(CCC(=O)NCc4ccccc4)C(=O)N23)c1 (centres undefined),active: 0%
3,Cc1nc2ccn(Cc3cccs3)c(=O)c2cc1C(=O)NCc1ccc(Br)cc1,inactive: 70%
4,O=C(COc1ccc(Cl)cc1)N(Cc1ccco1)Cc1ccco1,inactive: 45%
5,COc1ccc(N2CCN(C(=O)CNC3CC3)CC2)cc1,inactive: 74%
6,Cc1c(C(=O)N(C)C)sc2c1c(=O)n(-c1ccc(Cl)c(Cl)c1)c(=O)n2CC(=O)C(C)(C)C,inactive: 93%
7,COc1ccccc1CNC(=O)CCC(=O)N1CC(C)Sc2ccccc21 (centres undefined),inactive: 111%
8,Cc1ccc(C(=O)c2cn(Cc3ccccc3F)c3cc4c(cc3c2=O)OCCO4)cc1,inactive: 82%
9,Cc1ccc(-n2nc3c(N4CCC(C(=O)NC5CCC(C)CC5)CC4)nnc(C)c3c2C)cc1 (centres undefined),inactive: 67%
10,CCOc1ccc(N(CC(=O)Nc2cc(OC)cc(OC)c2)S(=O)(=O)c2c(C)[nH]c(=O)[nH]c2=O)cc1,inactive: 76%
11,CCC(=O)Oc1cc(C(C)(C)C)cc2cc(-c3nc(-c4ccc(OC)cc4OC)no3)c(=O)oc12,inactive: 89%
12,CC1=C(C(N)=O)C(c2cccc(O)c2)n2ncnc2N1 (centres undefined),inactive: 94%
13,COc1ccc(Cl)cc1NC(=O)Cn1c(=O)oc2cc(S(=O)(=O)N3CCCCCC3)ccc21,inactive: 86%
14,O=C(c1cccs1)c1cn(CCOc2ccc(Cl)cc2)c2ccccc12,inactive: 156%
15,Cc1ccc2sc(N(Cc3cccnc3)C(=O)Cc3ccccc3)nc2c1C,inactive: 67%
16,COc1ccc(CNC(=O)Cc2c(C)c3cc4c(C)coc4cc3oc2=O)cc1,inactive: 78%
17,CSc1nn(CC(=O)Nc2ccccc2F)c(N)c1S(=O)(=O)c1ccccc1,inactive: 92%
18,CCC(=O)OCCN1C(=O)c2ccccc2C1=O,inactive: 91%
19,Cc1ccc(N2CCn3c2nc2c3c(=O)n(C/C=C/c3ccccc3)c(=O)n2C)cc1C,inactive: 73%
20,CCc1ccc(NC(=O)CCc2c(C)nc3nc(-c4cc(OC)cc(OC)c4)nn3c2C)cc1,inactive: 111%
21,Cc1ccc(CN2CCSc3ccc(C(=O)NCc4ccc(OC(C)C)cc4)cc32)cc1,inactive: 62%
22,COc1ccc(-c2noc(CCCC(=O)Nc3cccc(Cl)c3C)n2)cc1,inactive: 80%
23,CCn1c2ccccc2c2nnc(N3CCN(c4cccc(Cl)c4)CC3)nc21,inactive: 61%
24,COc1ccc(S(=O)(=O)N2CCC(N3CCN(Cc4ccccc4)C(=O)C3=O)CC2)cc1,inactive: 101%
